Results as given in the supplement of paper PMC3334620.
Over roughly 33,000 sequences, “E-score (-0.5 to 0.5)” has its median near -0.017; the highest 2% begin near 0.3. This is one part of the list.

Each sequence was assayed against T1, Sut1 (UniProt P53032) (assay: PBM E-score (8-mer binding enrichment) (E-score (-0.5 to 0.5)); higher = stronger / more preferred TF binding; most listed sequences are background and not binding sites). Settings: protein concentration: 200 nM; construct: GST-full length.
T1 sequence: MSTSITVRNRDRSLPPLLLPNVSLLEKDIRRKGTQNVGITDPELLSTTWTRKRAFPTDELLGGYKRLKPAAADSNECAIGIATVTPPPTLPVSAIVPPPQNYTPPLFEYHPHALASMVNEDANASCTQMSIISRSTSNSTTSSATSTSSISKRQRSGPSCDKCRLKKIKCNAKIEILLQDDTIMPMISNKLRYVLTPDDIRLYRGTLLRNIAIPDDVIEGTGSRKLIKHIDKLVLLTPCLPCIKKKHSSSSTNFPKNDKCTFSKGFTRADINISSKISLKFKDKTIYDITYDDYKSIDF
Summary of the method: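 Masliner-normalised scans of fluorescent anti-GST signal were the basis for scoring. That signal came from GST-tagged yeast transcription factors applied at about 100-200 nM to double-stranded universal all-10-mer Agilent arrays on fresh or once-stripped slides. Each ungapped eight-base word, pooled with its reverse complement, received an E-score from the Universal PBM Analysis Suite.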

Sequence | PBM E-score
CGGCACTA | -0.0533
CCGCATAA | 0.208
CCAAGAAG | -0.0549
ACGTAGAC | -0.198
GCCGACGA | -0.101
CGATTCGC | -0.0157
AGATGCGC | -0.273
GATTGCAA | 0.0472
ACAGTAGC | -0.175
AGAGGTCC | 0.111
CTGAGAGC | -0.0782
ACTATAAC | 0.0883
CGAACTAC | 0.046
CGTCATAC | 0.12
GAGAGAGA | 0.0032
GCCTTTAA | 0.0866
AATTCGGC | -0.0483
AGACAACT | 0.171
CTGCGCGA | -0.042
ATATGTGG | 0.0773
GCTTCGAA | 0.191
CTTCAGGC | -0.167

Sequence | PBM E-score
CTACCGTC | -0.0907
CTAGAGAG | -0.142
GTGTAAGA | 0.105
GGAACGAA | 0.107
ACCCCTTA | -0.0235
CAAGGGTG | -0.317
GAGGTGTA | -0.11
ATCATTCA | 0.182
CGATTAGC | -0.182
AACGGATC | 0.206
CGCTAGAG | -0.0478
GCGGATTA | -0.0369
TAAGGTAA | 0.173
GCTGCAGC | -0.237
CGGGTTAC | -0.213
ACTTTGCT | 0.0184
TCCTTTAA | 0.108
GAGTAGCC | -0.11
CCCGCGTC | -0.0312
CGAGTGAC | -0.116
CCGCGAGC | 0.0862
GCGTTACC | -0.158

Sequence | PBM E-score
AATGTGCC | -0.183
GGGAGACA | 0.019
GTGTCGCA | -0.116
GCGACACA | -0.15
ATCGTAGG | -0.0546
CACCAGTC | -0.283
ACTGTGGG | -0.316
ATATAATG | 0.222
CCGGGCAA | -0.119
CGTAGATA | 0.0959
AGATTGCA | 0.062
AGTGAAGC | 0.0756
AAGGGGGC | -0.287
AAATCTGG | 0.181
AGCTGAAC | -0.0852
GGTAAACA | 0.098
TACTCGAA | 0.068
AAAGCATC | 0.0666
AAGTAAGG | 0.108
AGTTCCCC | -0.142
AATCGACC | -2e-05
ATGGGGAA | -0.0455

Sequence | PBM E-score
GTGATCAC | -0.114
AATGGGTA | 0.136
GCCCCTCC | -0.332
AGGACTTA | -0.0276
CCCAGTAC | -0.255
CCTGCATA | -0.155
AACGGTAT | -0.0944
CGCACAGC | -0.11
CGCGGATC | -0.0706
GACTAAAC | -0.0817
CAAGCGTG | -0.207
TCTATACA | 0.111
GGTGGCCA | -0.171
GAAAGATA | 0.161
AGTGGGCG | -0.0874
CGTACTAA | 0.156
AATCCGAC | 0.0553
ACCCCCCA | -0.275
CTGTACTC | 0.00796
CGACTGAA | 0.0692
